Reference: article PMC4336329 (PLoS ONE, 2015)
Screen size: about 310,000 compounds; about 2,200 (0.71%) showed an effect of 50% or more. The effect is printed as a negative number. The list shows a part of the results.

What follows are compounds tested against human ether-à-go-go-related gene (hERG) potassium channel (human, UniProt Q12809) (assay: primary screen, population patch clamp on CHO cells stably expressing hERG).
human ether-à-go-go-related gene (hERG) potassium channel, sequence (Q12809 whole entry, looked up): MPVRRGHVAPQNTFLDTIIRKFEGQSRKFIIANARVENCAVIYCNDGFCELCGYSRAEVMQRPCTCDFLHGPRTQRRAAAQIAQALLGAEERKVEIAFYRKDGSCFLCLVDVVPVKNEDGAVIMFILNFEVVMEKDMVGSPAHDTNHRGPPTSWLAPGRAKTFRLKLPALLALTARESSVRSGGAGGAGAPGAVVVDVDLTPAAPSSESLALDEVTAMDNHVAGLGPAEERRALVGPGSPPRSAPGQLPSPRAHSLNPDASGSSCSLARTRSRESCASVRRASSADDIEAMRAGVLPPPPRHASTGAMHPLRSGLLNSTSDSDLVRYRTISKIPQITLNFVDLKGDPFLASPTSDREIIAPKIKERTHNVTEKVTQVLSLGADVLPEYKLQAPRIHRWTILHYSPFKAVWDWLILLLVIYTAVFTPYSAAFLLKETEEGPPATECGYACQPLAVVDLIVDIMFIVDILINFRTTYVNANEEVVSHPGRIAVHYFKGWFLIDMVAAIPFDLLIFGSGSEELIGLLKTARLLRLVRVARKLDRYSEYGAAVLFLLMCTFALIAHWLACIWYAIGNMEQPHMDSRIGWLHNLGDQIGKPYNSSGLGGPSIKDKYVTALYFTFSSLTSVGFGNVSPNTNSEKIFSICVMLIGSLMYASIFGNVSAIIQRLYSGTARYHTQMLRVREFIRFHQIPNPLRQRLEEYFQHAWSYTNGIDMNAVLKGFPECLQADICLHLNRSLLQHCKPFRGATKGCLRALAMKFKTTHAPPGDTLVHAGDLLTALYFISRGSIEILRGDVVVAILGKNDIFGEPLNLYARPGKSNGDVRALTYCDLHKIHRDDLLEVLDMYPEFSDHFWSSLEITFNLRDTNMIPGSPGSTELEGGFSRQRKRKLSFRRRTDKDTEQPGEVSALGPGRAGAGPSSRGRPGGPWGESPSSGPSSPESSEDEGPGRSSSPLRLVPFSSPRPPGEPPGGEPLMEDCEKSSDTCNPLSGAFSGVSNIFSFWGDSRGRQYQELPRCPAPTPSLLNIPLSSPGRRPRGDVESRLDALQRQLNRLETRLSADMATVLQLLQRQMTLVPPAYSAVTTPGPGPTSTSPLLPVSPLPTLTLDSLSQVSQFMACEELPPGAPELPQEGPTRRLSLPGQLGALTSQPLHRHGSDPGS

SMILES	hERG current change (%, negative = inhibition) at 1uM
CCN(CC)S(=O)(=O)c1ccc(N2CCOCC2)c(NC(=O)Cc2ccc(Cl)cc2)c1	-0.184%
Cc1ccc(-n2ncc3c(NNC(=O)Cc4ccccc4)ncnc32)cc1	16.2%
Cc1ccc(C(O)(CNCc2ccccc2)c2ccccc2)cc1 (stereo not shown)	10.9%
COc1cccc(NC(=O)C2CCC(CNC(=O)[C@@H]3Cc4ccccc4CN3)CC2)c1 (stereo partly shown)	9.4%
COc1cccc(CCN2CCC(CNS(=O)(=O)c3cc(-c4cc(C)no4)ccc3OC)CC2)c1	-66.3%
Cc1nn(Cc2ccccc2Cl)c(C)c1C(=O)NCCN1C(=O)S/C(=C\c2ccccc2)C1=O	8.92%
CCOc1ccc(NC2=C(Cl)C(=O)N(C3CCCCC3)C2=O)cc1	7.1%
COc1ccc(OC)c(CN2CCN(C(=O)c3cc(S(=O)(=O)Nc4ccccc4OC)ccc3C)CC2)c1	10.1%
CCC(C)NS(=O)(=O)c1ccc(F)c(C(=O)Nc2c(F)cc(F)cc2Br)c1 (stereo not shown)	-6.42%
CC(C)CN(C(=O)CSc1nc2ccccc2c(=O)n1C)C1CCS(=O)(=O)C1 (stereo not shown)	-8.16%
COc1c(C(=O)Nc2ccc(Br)cn2)ccc2ccccc12	4.43%
CCCc1ncc(CN2CCC(C(=O)Nc3cccc(-c4cscn4)c3)CC2)cn1	6.68%
CC(=O)N1CCN(S(=O)(=O)c2ccccc2)C1c1ccccc1 (stereo not shown)	8.99%
CCN(CC)S(=O)(=O)c1ccc2c(c1)oc(=O)n2CC(=O)NC1CCCCC1	13.2%
COc1ccc(C(CNC(=O)c2[nH]c(C)c(C(C)=O)c2C)N2CCOCC2)cc1 (stereo not shown)	7.66%
CCn1c(O)c(/C=N/N=C2CCCCC2)c2cc(C3=NNC(=O)CC3)ccc21	10.6%
COc1cc(C(=O)N(Cc2cccnc2)Cc2cc3cc4c(cc3[nH]c2=O)OCCO4)cc(OC)c1OC	13.8%
COc1ccc(CC(NC(C)=O)C(=O)NC2CCN(S(=O)(=O)c3cccc4ccccc34)CC2)cc1OC (stereo not shown)	9.86%
Cc1ccc(CCNC(=O)c2cc(S(=O)(=O)N3CCCCC3)c[nH]2)cc1	4.34%
Cc1ccc2c(c1)[C@@H](O)C[C@@H](C)N2N=O	2.84%
CCOC(=O)c1c(NC(=O)CSC(=S)N(C)C)sc(C)c1C	10.7%
COc1cc(OC)cc(C(=O)N[C@H](C(=O)OCC(=O)Nc2ccc(OC)c(OC)c2)C(C)C)c1	11.4%
CCOC(=O)c1c(CN2CCN(c3ccccc3)CC2)oc2cc(Br)c(O)cc12.Cl	18.6%
Cc1cc(=O)oc2cc(OC(C)C(=O)NCc3ccccn3)ccc12 (stereo not shown)	5.51%
CC(COc1ccccc1)N1CCC(CO)(Cc2ccccc2)CC1 (stereo not shown)	-13.3%
CC(=O)c1c(C)nc(-c2ccccc2)nc1NC(=O)C(C)C	-3.98%

SMILES	hERG current change (%, negative = inhibition) at 1uM
CCN(C(=O)CN1CCN(c2ccccc2O)CC1)c1c(N)n(Cc2ccccc2)c(=O)[nH]c1=O	0.646%
CC(C)C(OC(=O)c1nsc(Cl)c1Cl)C(=O)NC1CCCCC1 (stereo not shown)	-5.34%
O=C(NC(=S)Nc1ccc2c(c1)OCO2)c1ccccc1	10.6%
COc1cccc(NC(=S)N2CCC(NC(=O)c3ccco3)CC2)c1	-6.52%
N#CCSc1nnc(Nc2ccccc2)s1	3.73%
COC(=O)CC/C(O)=C1\C(=O)CC(C)(C)CC1=NCCc1nc2ccccc2[nH]1	20.4%
CC(NC(=O)[C@H](Cc1c[nH]c2ccccc12)NC(=O)[C@@H]1Cc2ccccc2CN1)c1ccccc1 (stereo partly shown)	2.22%
COc1ccc(C(c2nnnn2Cc2cccs2)N2CCN(c3ccccc3)CC2)cc1OC (stereo not shown)	-18.3%
Cc1ccccc1C(=O)N1CCC(C(=O)Nc2cccc(S(=O)(=O)N3CCCCC3)c2)CC1	-4.43%
CCn1c2ccccc2c2nnc(SCc3ccccc3)nc21	6.55%
COCc1c(C#N)c(NCCc2ccccc2)nc(C)c1[N+](=O)[O-]	13.6%
CCC1(CC)NC(=O)N(CC(=O)OC(C)C(=O)Nc2ccc(NC(C)=O)cc2)C1=O (stereo not shown)	4.44%
O=C(CN1CCN(c2nc(-c3ccc(F)cc3)cs2)CC1)Nc1ccc2c(c1)OCO2	2.97%
CC(=O)c1ccc(OCC(O)CN2CCN(Cc3ccccc3)CC2)cc1.Cl (stereo not shown)	-21%
C=CCOc1ccc(C2/C(=C(\O)c3ccc(F)cc3)C(=O)C(=O)N2CCCN(C)C)cc1 (stereo not shown)	23.3%
CCOC(=O)N1CCN(C(=O)/C(=C/c2ccc(F)cc2)NC(=O)c2ccccc2)CC1	-10.2%
O=C(NNC(=O)C1CCCO1)c1ccc(F)cc1 (stereo not shown)	17.4%
Cc1cc(C)c2c(CN3CCCCC3C)cc(=O)oc2c1.Cl (stereo not shown)	12.5%
CCN(CC)C(=O)CSc1nnc(-c2ccc(F)cc2)n1N	7.96%
Cc1ccc(C(=O)NCc2ccccn2)cc1S(=O)(=O)N1CCOCC1	16%
Cc1ccccc1N(CC(=O)NCCc1ccccc1)C(=O)CCC(=O)Nc1ccccn1	13.2%
CN1CCN(S(=O)(=O)c2cccc(C(=O)Oc3ccccc3Cl)c2)CC1	0.38%
CCOC(=O)Cn1c(S(=O)(=O)Cc2ccccc2)nc2ccccc21	3.66%
O=C(O)c1cccc(N2C(=O)c3ccc4c5c(ccc(c35)C2=O)C(=O)N(c2cccc(C(=O)O)c2)C4=O)c1	4.56%
CCOc1ccc(S(=O)(=O)N2CCCC(C(=O)NCc3ccccn3)C2)cc1C (stereo not shown)	4.95%
O=C(Nc1nc(-c2ccccc2)cs1)c1ccc(N2CCOCC2)c([N+](=O)[O-])c1	31.6%
